Measured values as given in PubChem BioAssay AID1346428 (National Center for Advancing Translational Sciences (NCATS), 2018).
“And” between values parts separate entries of the source, which are not always exact repeats. Identical values can stand only once. The campaign covered roughly 48,000 compounds. About 1,200 (2.5%) were called active. Inconclusive results (about 2%) are left out.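 The calls were made as follows: active = activation of at least 60% and not above a set upper limit (about 1 call in 100 departs from these limits); inconclusive = activation of 40% to 60%, or above that upper limit; inactive = activation under 40%.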 This is one part of the list. Some compounds were tested as several samples or in several runs, with calls that do not always agree.

Target: Probable G-protein coupled receptor 32 (Homo sapiens) (UniProt O75388)
Assay: qHTS for Agonists of Human Resolvin D1 Receptor DRV1; also: 0% is about no effect
Details: CHO-K1 GPR32 beta-arrestin PathHunter luminescence, 90 min; at 76.9 µM; stronger effect = higher value; zero percent set by DMSO-only wells
Outline: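 Engineered CHO-K1 line co-expressing GPR32-ProLink and EA-beta-arrestin. Compound treatment lasted 90 min at 37 °C. Luminescence was recorded after 1 h with substrate at ambient temperature, relative to DMSO basal wells.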

Sequence of UniProt O75388 (O75388 whole entry, looked up): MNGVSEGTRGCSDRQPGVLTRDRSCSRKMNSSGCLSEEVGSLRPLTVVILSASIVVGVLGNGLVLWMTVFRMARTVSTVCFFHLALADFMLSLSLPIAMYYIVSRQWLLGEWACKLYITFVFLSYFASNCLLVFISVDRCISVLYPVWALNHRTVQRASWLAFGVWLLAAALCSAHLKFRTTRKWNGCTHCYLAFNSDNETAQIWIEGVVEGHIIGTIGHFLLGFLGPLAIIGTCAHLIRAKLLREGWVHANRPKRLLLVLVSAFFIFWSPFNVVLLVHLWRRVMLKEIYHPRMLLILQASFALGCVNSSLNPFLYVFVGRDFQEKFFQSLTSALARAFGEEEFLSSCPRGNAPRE

Row | Structure (SMILES) | activation
1 | COc1ccc2c(c1)CCCC2=O | inactive: 14.1%
2 | Cc1ccc(NC(=O)C(C)Sc2nc(=O)cc(N)n2-c2ccccc2)cc1 (stereo unspecified) | inactive: -3.38%
3 | CCOC(=O)c1cccc(NC(=O)CCn2nc(C)c(S(=O)(=O)N3CCCCC3)c2C)c1 | inactive: -13.8%
4 | CCCC(=O)Nc1ccc(-c2nc3ncccc3o2)cc1C | inactive: 17.1%
5 | CCOc1ccc(NC(=O)CN2CCCN(Cc3cc(C)ccc3C)S2(=O)=O)cc1 | inactive: -7.51%
6 | CCOC(=O)c1ccccc1NC(=O)N1CCC(CN2CCCCC2)CC1 | inactive: 4.8%
7 | CCCc1nn2c(=O)cc(COC(=O)c3ccccc3NC(=O)c3ccc(Cl)cc3)nc2s1 | inactive: -18.1%
8 | COc1cc(C2c3c(-c4cc(C)ccc4O)n[nH]c3C(=O)N2CCCO)ccc1OCCC(C)C (stereo unspecified) | active: 102%
9 | CCc1ccccc1Nc1cc(C(=O)NC(C)c2ccccc2)c2ccccc2n1 (stereo unspecified) | inactive: -32.3%
10 | CCOc1ccc(NC(=O)C2CCN(c3nnc(-n4c(C)ccc4C)s3)CC2)cc1 | inactive: -11.2%
11 | COc1ccc(NC(=O)CSc2nc3ccccc3n2Cc2cccc(OC)c2)cc1 | inactive: -17.6%
12 | COc1ccc2c(CNCCc3ccco3)c(C(=O)O)n(Cc3ccccc3)c2c1 | inactive: -7.04%
13 | COCCNC(=O)c1cccc(-n2c(C)nc3cccnc32)c1 | inactive: 3.29%
14 | Cc1nc(-c2cccnc2)sc1CCNS(=O)(=O)c1ccc(F)cc1 | inactive: 2.39%
15 | Cc1cc(S(=O)(=O)Nc2ccc(-c3ccc(N4CCCCCC4)nn3)cc2)c(C)cc1Cl | inactive: 4.57%
16 | CCc1sc(Nc2cccc(C)c2C)nc1-c1cc2cccc(OC)c2oc1=O | inactive: -14.8%
17 | COc1ccc(-c2cc(C(F)(F)F)nc(SCC(=O)NCCc3ccccc3)n2)cc1OC | inactive: -3.87%
18 | Cc1ccc(NC(=O)c2cc(S(=O)(=O)N3CCc4ccccc43)ccc2F)cc1Cl | inactive: -30.9%
19 | COc1cc(OC)cc(-n2c(=O)c3sccc3n(Cc3c(C)cc(C)cc3C)c2=O)c1 | inactive: -3.58%
20 | CCC(C)NC(=O)c1nn(-c2ccc(C)cc2)c(=O)n(C)c1=O (stereo unspecified) | inactive: -6.83%
21 | COc1ccc(-c2cc(C(F)(F)F)n3nc(C(=O)Nc4ccccc4SC)cc3n2)cc1OC | inactive: -4.36%
22 | Cc1ccc(OCC(=O)N(Cc2ccco2)Cc2ccc(C)o2)cc1 | inactive: -12%

Row | Structure (SMILES) | activation
23 | COc1cc2c(=O)n(CCC(=O)NCC3CCCO3)c(=O)n(CC(=O)Nc3ccc(C)c(C)c3)c2cc1OC (stereo unspecified) | inactive: -12%
24 | CC(C)c1cccc(OCCn2c(-c3ccc(Cl)cc3)nc3ccccc3c2=O)c1 | inactive: -12.5%
25 | COc1cccc(CCNC(=O)c2c(O)nc3ccccn3c2=O)c1 | inactive: 21.6%
26 | COCCCNC(=O)C1CCN(c2nn3cc(-c4ccc(F)cc4)nc3s2)CC1 | inactive: -6.2%
27 | CCOc1ccccc1NC(=O)c1cnn2c(C(F)F)cc(-c3ccccc3)nc12 | inactive: -8.13%
28 | Cc1ccccc1C(=O)OCc1cc(=O)n2nc(-c3cccs3)sc2n1 | inactive: -0.0436%
29 | CC1=C(C(=O)Nc2ccccc2)C(c2cccs2)n2nc(SCc3ccccc3F)nc2N1 (stereo unspecified) | inactive: -2.87%
30 | CN(C)CCN(Cc1ccco1)C(=O)c1oc2ccccc2c1NC(=O)c1ccccc1 | inactive: 33.1%
31 | Cc1ccc(C)c(NC(=O)c2cc(S(=O)(=O)N3CCCCCC3)ccc2F)c1 | inactive: -14.6%
32 | Cc1ccc(NC(=O)c2oc3ccc(S(=O)(=O)N4CCCCC4)cc3c2C)c(C)c1 | inactive: -7.44%
33 | CCCCCCc1cc2cc(-c3nnc(-c4cccc(Cl)c4)o3)c(=O)oc2cc1O | inactive: -2.5%
34 | Cc1cc(C)c(NC(=O)CN2C(=O)C3(SCC(=O)N3c3ccc(F)cc3)c3ccccc32)c(C)c1 (stereo unspecified) | inactive: -4.01%
35 | Cc1cc(C)c(NC(=O)c2c(C)oc3c2C2=NCCN2C=N3)c(C)c1 | inactive: -21.9%
36 | Cc1cccc(N2CCN(C(=O)C(C)n3nc(C)n4c(cc5occc54)c3=O)CC2)c1C (stereo unspecified) | inactive: -5.47%
37 | O=c1c(O)c(-c2ccc(O)c(O)c2)oc2cc(O)cc(O)c12 | active: 109% and inactive: 10.2%
38 | CCN(CC)S(=O)(=O)c1ccc(-c2csc(=Nc3cccc(C(F)(F)F)c3)n2Cc2ccc3c(c2)OCO3)cc1 | inactive: 16.4%
39 | COc1ccc(C2c3c(n(C)c4ccccc34)C(=O)N2CC(=O)Nc2ccc(C)cc2Cl)cc1 (stereo unspecified) | inactive: -15.6%
40 | CN(C)c1ccc(CNC(=O)C2CCN(S(=O)(=O)c3ccc4c(c3)oc(=O)n4C)CC2)cc1 | inactive: 11.7%
41 | COc1cccc(NC(=O)Cn2c(=O)n(Cc3ccc(C(=O)NCc4ccc5c(c4)OCO5)cc3)c(=O)c3ccccc32)c1 | inactive: 6.05%
42 | Cc1ccc(S(=O)(=O)N2CCCc3cc(NS(=O)(=O)c4ccc(F)cc4)ccc32)cc1 | inactive: -31.1%
43 | CCc1ccc(-c2cc(C)no2)cc1S(=O)(=O)NCc1ccco1 | inactive: -13.1%
44 | CCC(Oc1ccc(F)cc1)C(=O)Nc1nc2c(s1)CCCC2 (stereo unspecified) | inactive: -18.4%

Row | Structure (SMILES) | activation
45 | COc1ccc(C(=O)N2c3nc(-c4ccco4)nn3C3(CCCCC3)[C@@H]3CCCC[C@@H]32)cc1OC | inactive: -25.9%
46 | O=C(NC1CCCCC1)c1ccc(Cn2c(SCc3ccccc3)nc3cccnc32)cc1 | inactive: -4.66%
47 | Cc1cccc(C(=O)N2CCCCC2CCN2CCCCC2)c1 (stereo unspecified) | inactive: -1.36%
48 | O=C(Nc1ccc(F)cc1)c1oc2ccccc2c1NC(=O)C1CCCCC1 | inactive: -4.84%
49 | CC(=O)Nc1cccc(O)c1 | inactive: 3.89%
50 | Cc1ccccc1Cn1nnc2sc3c(c2c1=O)CCCC3 | inactive: -19.5%
51 | CCOC(=O)c1c(NC(=O)Nc2ccc(F)cc2)sc(C(=O)N(C)C)c1C | inactive: -9.7%
52 | CCOC(=O)c1cc2c(=O)n3ccccc3nc2n(CC2CCCO2)c1=NC(=O)c1cccc(C)c1 (stereo unspecified) | inactive: -2.21%
53 | O=C(COc1ccccc1F)Nc1nnc(SCc2cc(=O)n3ccccc3n2)s1 | inactive: -4.33%
54 | COc1ccc(CCNC(=O)c2ccc3c(c2)N(Cc2ccccc2Cl)C(=O)c2ccccc2S3)cc1OC | inactive: -18.5%
55 | CCc1nc2ccc(C(=O)NCc3ccccc3C)cc2nc1CC | inactive: -23.8%
56 | CN=C(N)NC(=O)Nc1c(C)cccc1C | inactive: 0.887%
57 | COc1ccc(-n2cc(-c3ccccc3)c3c(N4CCCC(C)C4)ncnc32)cc1 (stereo unspecified) | inactive: -8.1%
58 | O=c1c(NCc2cccs2)nccn1-c1ccccc1 | inactive: 7.27%
59 | COc1ccc(-c2cccc(NS(=O)(=O)c3cc(C(F)(F)F)ccc3Cl)c2)nn1 | inactive: 41.4%
60 | Cn1cc(CCCC(=O)NCc2cccc(Br)c2)c2ccccc21 | inactive: -33%
61 | COc1ccc(C(=O)NCCc2csc(-c3ccc(Cl)cc3)n2)cc1 | active: 86.6%
62 | O=C(CS(=O)(=O)c1cccc2nsnc12)NCc1ccccc1Cl | inactive: 1.51%
63 | Cc1ccc(CN2c3ccccc3-c3nc(SCC(=O)NCc4ccccc4)ncc3S2(=O)=O)cc1 | inactive: -1.77%
64 | CCC(=O)C1=C(c2ccccc2)N(C(=O)CC)n2c(nnc2-c2ccccc2)S1 | inactive: -12.7%
65 | Cc1ccc(N(CC(=O)Nc2ccc(F)cc2F)S(=O)(=O)c2cccs2)cc1 | inactive: -1.06%
66 | Cc1ccc(S(=O)(=O)NCCc2nnc3ccc(SCc4ccccc4F)nn23)cc1 | inactive: -24.4%

Row | Structure (SMILES) | activation
67 | COCCn1c(SCC(=O)Nc2cccc(C)c2C)nc2c(oc3ccccc32)c1=O | inactive: -34.1%
68 | COc1ccc(CCNC(=O)c2cc3c(-c4ccc(OC)c(OC)c4)nn(C)c3s2)cc1OC | inactive: 5.97%
69 | Cc1cc(-c2ccc(S(=O)(=O)Nc3cc(Cl)ccc3C)s2)on1 | inactive: -5.22%
70 | Cc1ccc(Cl)cc1N1CCN(C(=O)c2ccc(CS(=O)(=O)c3ccc(Br)cc3)o2)CC1 | inactive: 10.4%
71 | Cc1oc2ncn(C)c(=O)c2c1C(=O)N(Cc1ccccc1)C(C)C | inactive: -8.22%
72 | Cc1ccc(Cn2c(CO)cnc2SCc2cccc(F)c2)cc1 | inactive: 22.4%
73 | Cc1ccc(Cl)cc1N1CCN(C(=O)CCn2c(=O)c3cccn3c3cccnc32)CC1 | inactive: -15.6%
74 | CCOC(=O)c1c(C)[nH]c(CCC(=O)NCc2cccc(OC)c2)c1C | inactive: -4.41%
75 | Cc1oc2ccc(O)c(CN3CCCCC3C)c2c1C(=O)Nc1ccccc1 (stereo unspecified) | inactive: 17.8%
76 | O=C(CCc1ccccc1)N1CCc2c([nH]c3ccccc23)C1c1ccc(Cl)cc1 (stereo unspecified) | inactive: -39.6%
77 | CCc1ccccc1NC(=O)CSc1nc2ncccc2o1 | inactive: -5.03%
78 | Cc1cccc(CC(=O)NC2CC(=O)N(c3ccccc3)C2)c1 (stereo unspecified) | inactive: -4.51%
79 | COc1ccc(C(CNC(=O)Cc2ccc(Cl)cc2)N2CCOCC2)cc1 (stereo unspecified) | inactive: -1.88%
80 | O=C(CSc1nc(=O)n(CCN2CCOCC2)c2c1CCC2)Nc1cccc(Cl)c1 | inactive: -11.4%
81 | O=C(CC(c1cccs1)N1Cc2ccccc2C1=O)Nc1ccc(F)cc1F (stereo unspecified) | inactive: -2.66%
82 | Cc1cc2c(cc3c(SCc4cccc(F)c4)nnc(C)n32)o1 | inactive: -32.1%
83 | Cc1cccc(C(=O)N2CCC(N3CCN(Cc4ccc(F)cc4)C(=O)C3=O)CC2)c1 | inactive: -10.4%
84 | Cc1ccc(O)c(NC(=O)c2cc(-c3ccc(F)cc3)on2)c1 | inactive: -0.444%
85 | COc1cc(NC(=O)CN2C(=O)C(c3ccc(Cl)cc3)=NC23CCCCC3)cc(OC)c1 | inactive: -28.7%
86 | CC(C)c1ccc(C2c3c(oc4ccc(Cl)cc4c3=O)C(=O)N2CCCN2CCOCC2)cc1 (stereo unspecified) | inactive: -18.6%
